Data taken from publication PMC9848319, “Identification of a new structural family of SGK1 inhibitors as potential neuroprotective agents” (Journal of Enzyme Inhibition and Medicinal Chemistry, 2023).

Columns and labels:
[1] = test system: U2OS-iMLS cells; test: Mitophagy assay, iMLS reporter, PRKN-independent; type: cell-based, human; conditions: U2OS-iMLS (no PRKN), 24 h; for Reduction of DFP-induced mitophagy: co-treatment with DFP, compounds 10 µM; for Basal mitophagy (red-only structures per cell): compounds at 10 µM or inducer alone
[2] = test system: SH-SY5Y cells; test: Neuroprotection against okadaic acid (AD cellular model), crystal violet; conditions: for Protection from cell death caused by OA: pre-treated 10 µM 1 h, then OA 30 nM 24 h
[3] = test system: U2OS-iMLS PRKN cells; test: Mitophagy assay, iMLS reporter, PRKN-dependent; type: cell-based, human; conditions: 24 h; for Basal mitophagy (red-only structures per cell): compounds at 10 µM or inducer alone
[4] = test system: SH-SY5Y cell line; test: Citrate synthase assay (amount of mitochondria); type: cell-based, human; conditions: 24 h
[5] = test system: SH-SY5Y cells; test: Viability assay, crystal violet, compounds alone; type: cell-based, human; conditions: compounds at 10 µM for 24 h

Compound	Reduction of DFP-induced mitophagy [1]	Basal mitophagy (red-only structures per cell) [1]	Protection from cell death caused by OA [2]	other results
Oc1cccc(Nc2ncnc3[nH]ccc23)c1 [AEV1.40]	more than 50%	reduced also basal mitophagy close to half	reduced the cell death caused by OA	–
CO/C1=C\C(C)=C\[C@@H](C)[C@@H](O)[C@@H](C)C/C(C)=C/C=C/[C@H](OC)[C@@H]([C@@H](C)[C@@H](O)[C@H](C)[C@@]2(O)C[C@@H](O)[C@H](C)[C@@H](C(C)C)O2)OC1=O [BafA1, Bafilomycin A1, reference compound]	more than 50%	–	–	FCCP-induced mitophagy ([3]; co-treatment with FCCP, compounds 10 µM): mitophagy reduction
Cc1c(O)c(=O)ccn1C [DFP, Deferiprone, reference compound]	–	induced mitophagy	–	Citrate synthase activity ([4]; DFP 1 mM alone): decrease in citrate synthase activity
COC(=O)c1cc(Nc2ncnc3[nH]ccc23)ccc1Br [ERP2.14]	more than 40%	reduced also basal mitophagy close to half	–	–
N#CC(C#N)=NNc1ccc(OC(F)(F)F)cc1 [FCCP, Carbonyl cyanide-p-trifluoromethoxyphenylhydrazone]	–	–	–	Basal mitophagy (red-only structures per cell) [3]: induced mitophagy
CC(=O)c1ccc(Nc2ncnc3[nH]ccc23)cc1 [GMH1.12]	more than 40%	reduced also basal mitophagy close to half	reduced the cell death caused by OA	–
O=C(O)c1ccc(-c2c[nH]c3ncc(-c4ccccc4)cc23)cc1C1CCCC1 [GSK650394, reference compound]	more than 50%	neither GSK650394 nor our compounds enhanced the pathway	protected cells from death caused by the toxin	Basal mitophagy (red-only structures per cell) [3]: neither GSK650394 nor our compounds enhanced the pathway; Citrate synthase activity, co-treatment with DFP ([4]; DFP 1 mM plus compound 10 μM): significatively recovered the loss of mitochondria to control levels
C=C1[C@@H](O)[C@@H]2O[C@]3(CC[C@H](/C=C/[C@@H](C)[C@@H]4CC(C)=C[C@@]5(O[C@H](C[C@@](C)(O)C(=O)O)CC[C@H]5O)O4)O3)CC[C@H]2O[C@@H]1[C@@H](O)C[C@H](C)[C@H]1O[C@@]2(CCCCO2)CC[C@H]1C [OA, okadaic acid, reference compound]	–	–	–	Decrease in cell viability ([2]; OA 30 nM for 24 h): ~65%
Nc1ccc(Sc2ccc(Nc3ncnc4[nH]ccc34)cc2)cc1 [VNG1.52]	–	–	–	Cell viability [5]: slightly decrease in cell viability
FC(F)(F)c1cccc(Oc2ccc(Nc3ncnc4[nH]ccc34)cc2)c1 [VNG1.65]	–	–	–	Cell viability [5]: slightly decrease in cell viability
